Reference: publication PMC4336329 (PLoS ONE, 2015)
The campaign covered roughly 310,000 compounds. About 2,200 (0.71%) showed an effect of 50% or more. Effects have a minus sign here. Some of the results follow.

target: human ether-à-go-go-related gene (hERG) potassium channel (human, UniProt Q12809); assay: primary screen, population patch clamp on CHO cells stably expressing hERG
Sequence (Q12809 whole entry, looked up): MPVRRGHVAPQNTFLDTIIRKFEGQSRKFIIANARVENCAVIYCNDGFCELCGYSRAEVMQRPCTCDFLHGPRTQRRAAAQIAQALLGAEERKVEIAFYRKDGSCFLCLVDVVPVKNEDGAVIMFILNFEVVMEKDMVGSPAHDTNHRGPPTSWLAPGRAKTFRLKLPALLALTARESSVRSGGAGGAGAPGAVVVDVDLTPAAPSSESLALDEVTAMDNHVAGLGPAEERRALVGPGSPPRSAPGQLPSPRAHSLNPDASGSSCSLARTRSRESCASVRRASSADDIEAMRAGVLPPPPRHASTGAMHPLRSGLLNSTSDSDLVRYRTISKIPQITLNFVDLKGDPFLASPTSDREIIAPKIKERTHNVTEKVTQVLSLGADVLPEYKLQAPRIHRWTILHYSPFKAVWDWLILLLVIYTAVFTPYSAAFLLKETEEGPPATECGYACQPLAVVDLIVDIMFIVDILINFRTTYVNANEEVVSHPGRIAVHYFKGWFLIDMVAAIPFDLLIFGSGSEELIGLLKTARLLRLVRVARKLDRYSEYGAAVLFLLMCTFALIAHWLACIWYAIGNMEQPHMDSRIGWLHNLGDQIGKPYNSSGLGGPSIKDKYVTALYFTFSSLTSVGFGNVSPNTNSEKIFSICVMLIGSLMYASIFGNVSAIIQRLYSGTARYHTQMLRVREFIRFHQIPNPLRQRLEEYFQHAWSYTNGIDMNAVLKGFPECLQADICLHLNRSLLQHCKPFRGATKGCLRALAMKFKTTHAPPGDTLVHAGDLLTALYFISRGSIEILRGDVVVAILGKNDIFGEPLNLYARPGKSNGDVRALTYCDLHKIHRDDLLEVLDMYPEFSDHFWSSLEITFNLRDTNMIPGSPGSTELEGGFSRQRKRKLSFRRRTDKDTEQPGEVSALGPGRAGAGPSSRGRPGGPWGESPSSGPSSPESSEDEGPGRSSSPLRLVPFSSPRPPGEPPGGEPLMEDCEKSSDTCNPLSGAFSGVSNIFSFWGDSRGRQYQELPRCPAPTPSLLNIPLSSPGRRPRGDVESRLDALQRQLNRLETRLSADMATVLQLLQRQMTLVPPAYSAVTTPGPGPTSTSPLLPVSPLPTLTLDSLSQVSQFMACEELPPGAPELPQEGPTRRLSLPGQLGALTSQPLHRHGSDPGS

Row | SMILES | hERG current change (%, negative = inhibition) at 1uM [%]
1 | CCNc1nc(NCC)nc(N/N=C(\C)c2ccc(OC)cc2)n1 | 9.95
2 | O=C(CCC1N=C2c3ccccc3N=C(SCC(=O)NCc3ccco3)N2C1=O)NCc1ccco1 (stereo not drawn) | 13.2
3 | Nc1nc(NCCCN2CCOCC2)nc(Nc2cccc(F)c2)c1[N+](=O)[O-] | 0.167
4 | CC1=NN(C(=O)CSCc2ccccc2)C(O)(c2ccccc2)C1 (stereo not drawn) | 2.61
5 | C#CCOCCOCCOCCNc1nc(N2CCN(C(=O)[C@H](CCC(=O)O)n3cc(C(N)CC(C)C)nn3)CC2)nc(N2CCN(C(=O)[C@H](Cc3cc4ccccc4[nH]3)n3cc(C(N)CC(C)C)nn3)CC2)n1.Cl (stereo partly drawn) | 7.57
6 | O=C(Nc1ccc(C2=NCCN2)cc1)c1ccc(C(=O)Nc2ccc(C3=NCCN3)cc2)c([N+](=O)[O-])c1 | 8.94
7 | O=C(NC1CC1)C(=O)c1c[nH]c2ccccc12 | 24.9
8 | Cc1onc(-c2c(Cl)cccc2Cl)c1C(=O)NN1CCCCCC1 | 5.41
9 | Cc1cc(NC(=O)CCC(=O)N(Cc2ccco2)C2(C(=O)NC3CCCC3)CCC(C)CC2)no1 (stereo not drawn) | 13.3
10 | Br.CC12CN3CC(C)(CN(C1)C3c1cc3ccccc3[nH]1)C2=O (stereo not drawn) | -7.45
11 | COc1ccccc1N1CCN(C(=O)C2=CC=CN3CCS(=O)(=O)N=C23)CC1 | 13.7
12 | Cc1cccc(CC(=O)Nc2ccc(C(=O)N3CCOCC3)cc2)c1 | 7.84
13 | CCOC(=O)c1ccc(NC(=O)CSc2nnc(CC)o2)cc1 | 5.8
14 | Cc1cc(C(=O)N2CCN(Cc3ccc4c(c3)OCO4)CC2)cs1 | -21.8
15 | S=c1[nH]nc(COc2ccc3ccccc3c2)o1 | 11.2
16 | CCn1c(SCC(=O)N2CCCC2)nc2ccccc2c1=O | -7.76
17 | O=C(COC(=O)c1ccc(O)cc1O)Nc1nnc(-c2ccccc2)o1 | 12
18 | Cc1noc(C)c1COc1ccccc1C(=O)N(C)Cc1ccc(C(C)(C)C)cc1 | 1.72
19 | Cc1cccc(NC(=O)c2cc(S(=O)(=O)N3CCC4(CC3)OCCO4)ccc2F)c1 | 4.74
20 | Cc1ccc(C(=O)Nc2nc3ccc(S(C)(=O)=O)cc3s2)o1 | 1.91
21 | O=C(CSc1nnnn1-c1ccccc1Cl)Nc1ccc2c(c1)OCCO2 | 14.1
22 | Cc1ccc2nc(NCCC(=O)O)nc(-c3ccccc3)c2c1 | 12

Row | SMILES | hERG current change (%, negative = inhibition) at 1uM [%]
23 | COc1ccc(CN2CCCC(N3CCN(c4cccc(Cl)c4)CC3)C2)cc1OC (stereo not drawn) | -2.99
24 | CCn1c(=O)oc2cc(NC(=O)CCl)ccc21 | 15.9
25 | Cc1nnc2sc(SCC(=O)Nc3cccc(Cl)c3)nn2c1=O | -3.42
26 | Cc1cccc(C)c1NC(=O)CSc1ncnc2nc[nH]c12 | 9.36
27 | CNC(=O)c1ccc(C)c(NC(=O)C2=C(C)OCCS2)c1 | 17.6
28 | O=C(Cc1coc2ccc3ccccc3c12)Nc1nccs1 | 1.22
29 | COC(=O)CSc1nc2ccccc2c(=O)n1C | 5.29
30 | O=C(COc1ccccc1)NC1CCCCC1 | 17.2
31 | COc1cc(-c2nnc3sc(-c4ccncc4)nn23)cc(OC)c1OC | 3.33
32 | COc1cc(/C=C/C(=O)OCC(=O)c2c(N)n(C)c(=O)n(C)c2=O)ccc1O | 4.57
33 | CCOC(=O)CSc1nc2c(c(=O)[nH]c(=O)n2C)n1CCCc1ccccc1 | 1.75
34 | Cc1ccc(S(=O)(=O)N(C(=N)N)c2nc(N(C)C)nc(N(C)C)n2)cc1 | 7.68
35 | COc1cccc(C(=O)NCCS(=O)(=O)NC(C)CCc2ccccc2)c1 (stereo not drawn) | -0.964
36 | COc1ccccc1C(=O)COC(=O)c1cc([N+](=O)[O-])ccc1N1CCOCC1 | 1.57
37 | CCN(CC)CCCn1c(C)cc2c(c1=O)C(c1ccccc1)C(C#N)=C(N)O2 (stereo not drawn) | 0.132
38 | Fc1ccc(N2CCN(c3ncnc4nc[nH]c34)CC2)cc1 | 5.57
39 | Nc1ccccc1C(=O)OCCOc1ccccc1 | 9.85
40 | COCCn1c(=N)c(S(=O)(=O)c2ccc(F)cc2)cc2c(=O)n3cccc(C)c3nc21 | 8.04
41 | O=C(Nc1ccccc1O)c1ccc2c(c1)C(=O)N(Cc1ccco1)C2=O | 10.8
42 | CNc1nc(N)c([N+](=O)[O-])c(Nc2cccc(Cl)c2)n1 | 12.8
43 | O=C(NCc1ccccc1CN1CCCC1)c1cccc(S(=O)(=O)N2CCCC2)c1 | -15.4
44 | C/C(=N\NC(=S)NC1CCCCC1)c1cccc(Br)c1 | 9.71

Row | SMILES | hERG current change (%, negative = inhibition) at 1uM [%]
45 | COc1cccc(CN2CCC(n3nccc3NC(=O)C3CC3)CC2)c1 | -41.3
46 | CCOc1ccccc1N(CC(=O)N/N=C(\C)c1cccc(Br)c1)S(C)(=O)=O | 4.68
47 | Cl.NCCCNc1ccc([N+](=O)[O-])cc1C(F)(F)F | 12.7
48 | O=C(NCc1cccnc1)C1c2ccccc2C(=O)N1Cc1ccccc1 (stereo not drawn) | 6.72
49 | COC(=O)c1ccc(CN2CCCC(C(=O)c3cc(F)ccc3OC)C2)cc1 (stereo not drawn) | -8.3
50 | CCC(CC)c1nnc(NC(=O)C2COc3ccccc3O2)s1 (stereo not drawn) | 4.57
51 | CCC(=O)Nc1c2c(nn1-c1ccccc1C)CSC2 | 15.8
52 | COc1ccc(Nc2cc(C)nc3ccccc23)cc1.Cl | -15.6
53 | NC(=O)C1(NC(=O)[C@@H]2CC3(CC(c4cccc(NC(=O)[C@@H]5CCC(=O)N5)c4)=NO3)CN2C(=O)Cc2ccc(C(F)(F)F)cc2)CC1 (stereo partly drawn) | 12.7
54 | CN(C)c1ccc(C2NCCS2)cc1 (stereo not drawn) | 15.4
55 | CCn1cc(/C=C/C(=O)Nc2c(C)nn(Cc3ccccc3)c2C)cn1 | 6.45
56 | COc1ccccc1Nc1ncc(C(=O)N2CCN(Cc3ccc(OC)c(OC)c3OC)CC2)c2ccccc12 | -3.69
57 | Cc1ccccc1C(=O)N(C)Cc1ccccc1 | 3.31
58 | CC(C)Cn1c(SCC(=O)N2CCOCC2)nc2ccccc2c1=O | 5.28
59 | Cc1ccc(OCCCC(=O)Nc2ccc(N3CCOCC3)cc2)c(C)c1 | 6.49
60 | O=C(N/N=C/c1c(O)n(Cc2ccc(F)cc2)c(=S)[nH]c1=O)c1ccncc1 | 3.6
61 | O=C1CCCN1CCCNS(=O)(=O)c1ccc(F)c(F)c1 | 13.5
62 | CCOC(=O)C1=C(N)N2C(=O)C(C)SC2=C(C(=O)OC)C1c1cccc(OC)c1 (stereo not drawn) | 2.16
63 | COc1ccc(-c2[nH]ncc2CNCCCSC)cc1F | -3.56
64 | Cc1cc2ccccc2c(=O)[nH]1 | 15.5
65 | CCCCn1c(N)c(N(CCOC)C(=O)CCNC(=O)c2ccc(Cl)cc2)c(=O)[nH]c1=O | 5.21
66 | COC(=O)C1=C(c2c(C)noc2C)C[C@@H]2CC[C@H]1N2C(=O)NCCOc1ccc(OC)cc1 | 12.3

Row | SMILES | hERG current change (%, negative = inhibition) at 1uM [%]
67 | COc1c(C)cccc1C(=O)Nc1ccc(CN2CCCCC2)cc1 | -6.71
68 | CN(CCCN1CCOCC1)C(=O)c1cc(COc2c(F)cccc2F)on1 | 8.01
69 | COc1cc(C)nc(N2CCC(C(=O)NC3CCCCC3)CC2)n1 | 4.74
70 | COc1ccc(/C=C/c2ccncc2)c2ccccc12 | 13.7
71 | O=C(c1cc(COc2ccc(F)cc2Cl)on1)N1CCC(OCc2cccnc2)CC1 | -19.8
72 | CCC(O)(CC)C(=O)N/N=C/c1cc(Br)cc(Br)c1O | 9.26
73 | CN(C)C(=O)CN(c1ccc(F)c(Cl)c1)S(C)(=O)=O | 14.6
74 | CC(C)OCCCn1c(=O)c2ccccc2n2c(CCC(=O)NCc3ccccn3)nnc12 | 11
75 | O=C(CN1C(=O)/C(=C/c2ccccc2F)SC1=S)NC1C=CS(=O)(=O)C1 (stereo not drawn) | 11.4
76 | COc1ccc(CNC(=O)C[C@H]2C(=O)N(c3ccccc3)C[C@@H]2Cc2ccccc2)cc1 | -21
77 | CCC(=O)Nc1cccc(-c2nc3ccccc3c(=O)o2)c1 | 10.7
78 | Cc1cc2[nH]c(=O)c(=O)[nH]c2cc1S(=O)(=O)NCc1ccc(Cl)cc1 | 10.5
79 | Cc1cccc(-c2nnc(-c3ccc(N)cc3)o2)c1 | 10.9
80 | CN1C(=S)SC(N(O)C(=O)NC2CCCCC2)C1(C)C (stereo not drawn) | -8.74
81 | CC(C)(C)CN1CCNC(=O)C1CC(=O)N1CCC(C(=O)N2CCOCC2)CC1 (stereo not drawn) | 6.25
82 | O=C(c1cnsn1)N1CCC(CO)(Cc2ccc(Cl)cc2)CC1 | 2.82
83 | C[C@H](NC(=O)c1nc[nH]c1C(=O)NCCCCCNC(=O)OC(C)(C)C)C(=O)OC(C)(C)C | 14.1
84 | Nc1nc(SCC(=O)NCCOCCO)nc2sc3c(c12)CCCC3 | 15
85 | COc1cc2c(cc1NC(=S)NC(=O)c1c(OC)cccc1OC)oc1ccccc12 | 13.7
86 | Clc1ccc(CON/C=N/c2ncnc3sccc23)c(Cl)c1 | 5.41
87 | COc1ccc(C2c3[nH]c4ccccc4c3CCN2C(=O)Cc2nonc2C)c(F)c1 (stereo not drawn) | 16.1
